Measurements taken from PMC2902519, “Impairment of Protein Trafficking upon Overexpression and Mutation of Optineurin” (PLoS ONE, 2010).

B1: FLAG-tagged E50K optineurin (FLAG-OPTN E50K) (natural protein)
chain: not shown
notes: optineurin, human, with the glaucoma-associated mutation Glu50 to Lys; construct made as described in earlier work; both copies are written as this one molecule; also called E50K mutant; pTarget-FLAG-OPTN_(E50K); source: RPE (ARPE-19) cells, transiently transfected 16 h, in lysate
B2: FLAG-tagged L157A optineurin (FLAG-OPTN L157A) (natural protein)
chain: not shown
notes: optineurin, human, with the point mutation Leu157 to Ala in the leucine zipper ([…]); both copies are written as this one molecule; also called L157A mutant; pTarget-FLAG-OPTN_(L157A); source: RPE (ARPE-19) cells, transiently transfected 16 h, in lysate

Target: the molecule itself
Test: native gel or EMSA; native blue gel electrophoresis, data not shown; 420 kDa homo-hexamer

Row | Protein | stoichiometry N
1 | B1 | 6
2 | B2 | 6
